In all, about 360,000 compounds went through this assay and about 16,000 (4.4%) were called active. The inconclusive results got no clear call from the source; some entries with a clear call stand among them for comparison. The call rests on the fitted dose curve; in most records, active means well fitted inhibition curve with a large enough effect; inconclusive means small, poorly fitted or top-dose-only effect; inactive means no such curve, though single readings can be large or run the other way. A potency beside an inconclusive call is a rough fit, not a confirmed value.
target: Bromodomain adjacent to zinc finger domain protein 2B (Homo sapiens) (UniProt Q9UIF8); test: qHTS Assay for Inhibitors of BAZ2B; conditions: AlphaScreen BAZ2B-H3K14Ac peptide displacement; activity change, negative = inhibition: at 114 µM (top of the series); further: nearly all actives have a fitted effect of over 60% in size
Sequence of UniProt Q9UIF8 (Q9UIF8 whole entry, looked up, the tested form may be a part): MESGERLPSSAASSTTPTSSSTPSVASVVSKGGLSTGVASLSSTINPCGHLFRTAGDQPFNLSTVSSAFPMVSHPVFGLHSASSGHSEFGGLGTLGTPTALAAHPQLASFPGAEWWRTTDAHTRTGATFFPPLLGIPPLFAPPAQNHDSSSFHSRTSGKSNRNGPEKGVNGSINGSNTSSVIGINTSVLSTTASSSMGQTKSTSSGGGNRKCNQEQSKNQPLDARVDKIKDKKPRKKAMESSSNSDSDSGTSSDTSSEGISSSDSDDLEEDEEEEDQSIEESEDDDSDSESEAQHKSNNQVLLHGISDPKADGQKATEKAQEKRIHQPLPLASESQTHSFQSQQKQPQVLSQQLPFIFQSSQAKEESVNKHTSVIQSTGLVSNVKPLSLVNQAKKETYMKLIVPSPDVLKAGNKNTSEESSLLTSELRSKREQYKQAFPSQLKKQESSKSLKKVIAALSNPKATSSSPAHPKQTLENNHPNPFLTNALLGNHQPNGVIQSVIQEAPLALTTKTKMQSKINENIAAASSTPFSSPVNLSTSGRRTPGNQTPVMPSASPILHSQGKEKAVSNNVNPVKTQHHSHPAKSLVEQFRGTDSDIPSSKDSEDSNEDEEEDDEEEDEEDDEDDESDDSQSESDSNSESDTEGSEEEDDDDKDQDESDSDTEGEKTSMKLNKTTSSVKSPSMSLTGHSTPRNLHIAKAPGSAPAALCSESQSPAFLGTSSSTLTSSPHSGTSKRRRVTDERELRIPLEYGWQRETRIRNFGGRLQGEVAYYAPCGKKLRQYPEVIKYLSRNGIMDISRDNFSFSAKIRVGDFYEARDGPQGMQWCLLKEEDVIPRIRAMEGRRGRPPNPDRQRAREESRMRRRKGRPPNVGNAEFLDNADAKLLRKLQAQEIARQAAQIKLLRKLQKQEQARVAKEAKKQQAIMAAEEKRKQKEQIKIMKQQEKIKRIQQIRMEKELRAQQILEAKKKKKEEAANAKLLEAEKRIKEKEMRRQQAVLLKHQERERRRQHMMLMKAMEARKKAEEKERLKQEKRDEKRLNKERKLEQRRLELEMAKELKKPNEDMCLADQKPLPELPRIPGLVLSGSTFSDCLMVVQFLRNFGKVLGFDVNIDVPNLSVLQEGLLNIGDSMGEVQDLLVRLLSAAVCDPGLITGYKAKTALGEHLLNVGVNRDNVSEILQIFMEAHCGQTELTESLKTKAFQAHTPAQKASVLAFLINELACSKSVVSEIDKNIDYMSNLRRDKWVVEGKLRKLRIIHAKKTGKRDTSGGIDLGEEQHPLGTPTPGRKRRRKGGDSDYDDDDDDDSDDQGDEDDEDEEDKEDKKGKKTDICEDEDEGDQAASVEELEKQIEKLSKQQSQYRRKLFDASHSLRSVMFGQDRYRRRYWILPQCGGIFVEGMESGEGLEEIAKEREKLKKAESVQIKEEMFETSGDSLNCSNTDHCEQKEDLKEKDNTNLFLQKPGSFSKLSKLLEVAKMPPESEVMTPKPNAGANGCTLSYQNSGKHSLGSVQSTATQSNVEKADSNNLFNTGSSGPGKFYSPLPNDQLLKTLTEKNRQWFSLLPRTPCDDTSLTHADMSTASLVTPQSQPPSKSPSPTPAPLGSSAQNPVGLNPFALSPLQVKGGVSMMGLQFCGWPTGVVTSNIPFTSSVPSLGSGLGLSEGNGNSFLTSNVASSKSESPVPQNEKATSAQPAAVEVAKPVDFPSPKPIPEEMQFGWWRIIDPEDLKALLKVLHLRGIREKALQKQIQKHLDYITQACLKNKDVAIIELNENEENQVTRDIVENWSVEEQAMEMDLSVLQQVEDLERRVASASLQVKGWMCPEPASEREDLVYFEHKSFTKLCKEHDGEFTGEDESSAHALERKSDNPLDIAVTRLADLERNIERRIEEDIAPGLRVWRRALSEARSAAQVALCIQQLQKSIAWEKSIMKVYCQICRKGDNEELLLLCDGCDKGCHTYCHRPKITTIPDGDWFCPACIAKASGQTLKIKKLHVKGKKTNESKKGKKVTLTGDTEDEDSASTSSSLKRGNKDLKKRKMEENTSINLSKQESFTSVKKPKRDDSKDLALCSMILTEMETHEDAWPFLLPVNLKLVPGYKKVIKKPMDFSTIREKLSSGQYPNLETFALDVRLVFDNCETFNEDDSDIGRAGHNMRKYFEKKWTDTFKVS
Outline: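 Inhibition is scored as reduced AlphaScreen emission. The BAZ2B/b-H3(5-23)K14Ac complex (50 nM each) in PBS pH 7.4, 0.01% Tween-20 meets compound (up to 110 uM) for 30 min at RT before bead addition.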
On the % scale 0 is the no-effect control and ±100 the full control effect; potency means the concentration at half of the fitted maximal effect; tags describe the fitted curve by direction and shape.

Compound | activity change, negative = inhibition | Potency
COc1ccccc1NC(=O)Cn1cnc2ccc(S(=O)(=O)N3CCC(C)CC3)cc2c1=O | inactive: -23.3% | 
Cc1ccc2cc(C)c3nnc(SCC(=O)Nc4nc5c(s4)CCCC5)n3c2c1C |  | inconclusive: 50.1 µM [inhibitor, partial curve]
COc1ccc(-c2csc(N3CCN(c4cc5c(cc4Cl)nc(-c4ccncc4)n5CCOCCO)CC3)n2)cc1 |  | active: 50.1 µM
COc1ccc(C(=O)N/N=C\c2ccoc2)cc1 |  | inconclusive: 79.4 µM [inhibitor, single point]
CCS(=O)(=O)Nc1ccc(C2=NN(C(=O)c3ccccc3)C(c3cccs3)C2)cc1 (stereo unspecified) |  | active: 79.4 µM
Cc1ccc(Cl)cc1NC(=S)NCc1cccn1C |  | inconclusive: 79.4 µM [inhibitor, single point]
Cc1ccc(C)c(SCC(=O)Nc2cccc(S(=O)(=O)N3CCOCC3)c2)c1 | inactive: -4.46% | 
COc1ccc(-c2ccc(OC)c([C@H]3[C@@H]4C=CCC[C@@]4(C)C(=O)N3Cc3ccccc3)c2)cc1OC |  | inconclusive: 39.8 µM [inhibitor, partial curve]
Cc1ccccc1N1CC(C(=O)Nc2nnc(SCCN3CCOCC3)s2)CC1=O (stereo unspecified) | inactive: -28.8% | 
CCCNC(=O)Cn1nc(-c2ccc(C)c(C)c2)c2cnc3ccc(OC)cc3c21 | inactive: -25.7% | 
Cc1c(C)n(CC(O)CN2CCCCCC2)c2ccccc12 (stereo unspecified) |  | inconclusive: 50.1 µM [inhibitor, partial curve]
COc1cccc(C(=O)NCC(=O)NCc2cc(=O)n(C)c(=O)n2C)c1OC | inactive: -37.4% | 
CC1=C(C(=O)Nc2ccc(C(=O)N3CCN(c4cccc(Cl)c4)CC3)cc2)SCCO1 |  | inconclusive: 39.8 µM [inhibitor, partial curve]
Cc1ccc(C)c(NC(=O)CN(C)C(=O)c2ccc3[nH]c4c(c3c2)CC(C)CC4)c1 (stereo unspecified) |  | inconclusive: 70.8 µM [inhibitor, partial curve]
O=C(NCc1ccco1)c1ccccc1F |  | inconclusive: 89.1 µM [inhibitor, single point]
CCOC(=O)C(=NC(C)CC)NNc1cccc(C(F)(F)F)c1 (stereo unspecified) |  | inconclusive: 39.8 µM [inhibitor, partial curve]
CCOc1cc(-c2ccc3c(c2)OCO3)cc(=O)c2c(C)oc(C)c12 |  | inconclusive: 50.1 µM [inhibitor, partial curve]
Cc1nc2cc(NCc3nc4ccccc4n3Cc3ccccc3)ccc2n1C |  | active: 44.7 µM
COc1cc(/C=C2/C(=O)N(c3cccc(Br)c3)N=C2C)cc(OC)c1O |  | active: 10 µM
CCOC(=O)c1sc2nc(CC(=O)OC)nc(N3CCN(c4ccc(OC)cc4)CC3)c2c1C |  | inconclusive: 6.31 µM [inhibitor, full curve]
CC(C)CCSc1nnc2n(-c3ccccc3)c(=O)c3c4c(sc3n12)CC(C)CC4 (stereo unspecified) | inactive: -2% | 
O=[N+]([O-])c1cccc(S(=O)(=O)N/N=C/c2ccc(O)cc2)c1 |  | inconclusive: 79.4 µM [inhibitor, single point]
COc1ccc(N(C(=O)c2snc(C(N)=O)c2N)C(C(=O)NC2CCCC2)c2ccco2)c(OC)c1 (stereo unspecified) |  | inconclusive: 89.1 µM [inhibitor, single point]
CCc1ccccc1NC(=O)C1CCN(c2nc3ccccc3[nH]2)CC1 | inactive: 3.31% | 
Cc1cc(NC(=O)CSc2nc3cc(Cl)ccc3c(=O)n2CC(C)C)no1 | inactive: -4.64% | 
Cc1ccc(-n2nc(C)c(C(=O)NCCCN3CCN(c4cccc(Cl)c4)CC3)c2-n2cccc2)cc1 |  | inconclusive: 28.2 µM [inhibitor, full curve]

Compound | activity change, negative = inhibition | Potency
Cc1ccc(-c2nnn(CC(=O)O)n2)cc1 |  | inconclusive: 70.8 µM [inhibitor, partial curve]
O/N=C/c1cn(-c2ccccc2)nc1-c1ccc2c(c1)OCCO2 |  | inconclusive: 70.8 µM [inhibitor, single point]
COCc1c(N)c(C)nc(Cl)c1C#N |  | inconclusive: 39.8 µM [inhibitor, partial curve]
Cc1cc(NS(=O)(=O)c2cn(C)c(C)n2)ccc1Br | inactive: -0.453% | 
Cc1ccccc1NCc1ccc(O)c2ncccc12 |  | active: 50.1 µM
Cc1cccc(C)c1OCCCCN1CCCCC1 |  | inconclusive: 89.1 µM [inhibitor, single point]
CC1CCN(C(=O)c2ccc(NC(=O)c3cccs3)cc2)CC1 | inactive: -0.219% | 
COc1ccc(N=C2SC(C(N)=O)CC(=O)N2Cc2ccc3c(c2)OCO3)cc1 (stereo unspecified) |  | active: 79.4 µM
O=C(COC(=O)c1ccccc1Nc1ccccc1)NCc1ccccc1Cl | inactive: 1.47% | 
COc1ccccc1-c1c(C(F)(F)F)oc2cc(OC(=O)c3ccc([N+](=O)[O-])cc3)ccc2c1=O |  | inconclusive: 28.2 µM [inhibitor, full curve]
CCC(=O)N1CCN(c2ccc(NC(=O)c3ccc([N+](=O)[O-])o3)cc2)CC1 |  | inconclusive: 50.1 µM [inhibitor, partial curve]
Cc1ccc(NC(=O)CCCCCC2NC(=O)NC2C)cc1 (stereo unspecified) |  | active: 0.794 µM
COc1ccccc1NC(=O)CSc1nnc2ccc(-c3cccnc3)nn12 |  | active: 70.8 µM
O=C(CNS(=O)(=O)c1ccc(F)cc1)Nc1ccc(C(F)(F)F)cc1 | inactive: -4.63% | 
COc1ccc(C2=C(C=C(C#N)C#N)C(c3ccccc3C)c3ccccc3O2)cc1OC (stereo unspecified) |  | inconclusive: 39.8 µM [inhibitor, full curve]
O=c1cc(-c2ccc(O)c(O)c2)oc2ccc3ccccc3c12 |  | inconclusive: 89.1 µM [inhibitor, single point]
CCOc1ccccc1CNC(=O)c1cc2occc2n1C |  | active: 44.7 µM
O=C(c1cc(Cl)nc2ccccc12)N(Cc1nnc(-c2ccc(Cl)cc2)o1)C1CC1 | inactive: -2.68% | 
Cc1cc(=O)n(C)c(=O)n1CCCCCOc1cccc([N+](=O)[O-])c1 | inactive: 9.6% | 
Clc1cccc(-c2sc(Nc3ccccc3)n[n+]2-c2ccccc2)c1Cl |  | inconclusive: 35.5 µM [inhibitor, single point]
COc1ccc(NC(=O)Cn2nnc(-c3nc(-c4ccncc4)no3)c2N)cc1OC | inactive: -15.3% | 
O=C(N/N=C/C=C/c1ccccc1)NC1CCCCC1 |  | inconclusive: 89.1 µM [inhibitor, single point]
Cc1ccc(Cn2cc(CCC(=O)NCC(C)c3ccccc3)c3ccccc32)cc1 (stereo unspecified) |  | inconclusive: 79.4 µM [inhibitor, single point]
C=CCNc1sc(C(=O)c2ccccc2)c(N)c1-c1nc2ccccc2s1 |  | inconclusive: 35.5 µM [inhibitor, partial curve]
O=C1NNC(c2ccccc2)=N/C1=C\c1ccccc1 | inactive: -3.43% | 
O=C1NC(=S)S/C1=C\c1ccc(SCc2ccccc2)o1 |  | active: 50.1 µM

Compound | activity change, negative = inhibition | Potency
COc1ccc(CCC(=O)N2CCCC(Nc3ccc(C)c(C)c3)C2)cc1OC (stereo unspecified) |  | inconclusive: 44.7 µM [inhibitor, partial curve]
Cc1coc2c(C)c3oc(=O)c(CCC(=O)N4CCCCC4)c(C)c3cc12 | inactive: -14.9% | 
CC(C)C1Nc2ccc(C(=O)O)cc2C2C=CCC21 (stereo unspecified) |  | active: 79.4 µM
CC(C)CNC(=O)COC(=O)/C=C/c1ccco1 |  | inconclusive: 100 µM [inhibitor, single point]
Cc1ccc(-c2nn(-c3ccccc3)cc2C(=O)N2CCN(c3ccccn3)CC2)cc1 |  | inconclusive: 50.1 µM [inhibitor, partial curve]
c1ccc(Nc2cccc(Nc3ccccc3)c2)cc1 |  | active: 12.6 µM
CCn1c(N)c(C(=O)NCC2CCCO2)sc1=S (stereo unspecified) |  | active: 79.4 µM
O=C(O)CN1C(=O)/C(=C\c2cc(Br)ccc2OCc2ccc(F)cc2)SC1=S |  | active: 56.2 µM
Oc1ccc(Br)cc1/C=N/N1CCN(Cc2ccccc2)CC1 |  | inconclusive: 79.4 µM [inhibitor, single point]
Cc1ccc(CSc2cn(CCNC(=O)c3cccs3)c3ccccc23)cc1 | inactive: -32.7% | 
O=C(Nc1ccc(F)c(Cl)c1)C1CCN(S(=O)(=O)c2ccc3c(c2)CCCN3C(=O)C2CCC2)CC1 | inactive: 3.05% | 
CC(C)(O)CCCC(C)(O)c1ccc(C(=O)O)cc1O (stereo unspecified) |  | inconclusive: 89.1 µM [inhibitor, single point]
Cn1cnnc1SCC(=O)Nc1sc2c(c1C(N)=O)CCC2 |  | active: 50.1 µM
CC1CCN(S(=O)(=O)c2c[nH]c(=O)[nH]c2=O)CC1 | inactive: 12.4% | 
COc1ccc(NC(=O)NNC(=O)C(O)(c2ccccc2)c2ccccc2)cc1 | inactive: -15% | 
COC(=O)c1nccc2c1[nH]c1ccccc12 | inactive: 9.46% | 
CCn1c(=O)n(CC)c2cc(NC(=O)C(C)c3ccccc3)c(Br)cc21 (stereo unspecified) |  | inconclusive: 79.4 µM [inhibitor, partial curve]
COc1cccc(/C=N/NC(=O)c2c(-c3ccccc3)noc2C)c1O |  | active: 44.7 µM
CC(=O)c1cccc(N=c2scc(-c3ccc(S(=O)(=O)N4CCOCC4)cc3)n2CCO)c1 |  | inconclusive: 31.6 µM [inhibitor, partial curve]
CN(CC(=O)Nc1cccc(F)c1)C(=O)c1cc(-c2cccs2)nn1-c1ccccc1 |  | inconclusive: 70.8 µM [inhibitor, single point]
CCN(CC1COc2ccccc2O1)C(=S)Nc1ccccc1 (stereo unspecified) | inactive: 1.93% | 
COC(=O)c1cc(OC)c(OC)cc1NC(=S)N1CCN(Cc2ccccc2)CC1 |  | inconclusive: 89.1 µM [inhibitor, single point]
CC(=O)Nc1nc(=S)n(-c2ccccc2)[nH]1 |  | inconclusive: 89.1 µM [inhibitor, single point]
CN(CC(=O)Nc1ccccc1C(F)(F)F)Cc1c(O)ccc2ccccc12 |  | inconclusive: 70.8 µM [inhibitor, single point]

Reference: PubChem BioAssay AID504333 (National Center for Advancing Translational Sciences (NCATS), 2011)
